These are yes or no findings as the source states them, for the method shown. Binding seen in cells or lysates may run through a third protein. Some entries that bind do so weakly or less than the wild type.
Columns and labels:
Experiment in all cases: pull-down; GST-APP tail WT, tail mutants or GST only on glutathione-Sepharose beads, incubated overnight at 4 °C with pre-cleared HEK293T lysate; eluted with […] NaCl; eluates immunoblotted for the hits; N = 3; only the target purified
[1] = biological target: GST fused to the APP cytosolic tail mutant D664A (UniProt P05067)
[2] = biological target: GST fused to the APP cytosolic tail mutant N684A (UniProt P05067)
[3] = biological target: GST fused to the APP cytosolic tail mutant Y682A (UniProt P05067)
[4] = biological target: GST fused to the APP cytosolic tail mutant Y687A (UniProt P05067)
[5] = biological target: GST fused to the WT cytosolic tail of APP (649-695) (UniProt P05067)
[6] = biological target: GST fused to the APP cytosolic tail mutant FFE689-91AAA (UniProt P05067)

Amino acid sequences for entries named in this document (tags omitted).
UniProt P49757: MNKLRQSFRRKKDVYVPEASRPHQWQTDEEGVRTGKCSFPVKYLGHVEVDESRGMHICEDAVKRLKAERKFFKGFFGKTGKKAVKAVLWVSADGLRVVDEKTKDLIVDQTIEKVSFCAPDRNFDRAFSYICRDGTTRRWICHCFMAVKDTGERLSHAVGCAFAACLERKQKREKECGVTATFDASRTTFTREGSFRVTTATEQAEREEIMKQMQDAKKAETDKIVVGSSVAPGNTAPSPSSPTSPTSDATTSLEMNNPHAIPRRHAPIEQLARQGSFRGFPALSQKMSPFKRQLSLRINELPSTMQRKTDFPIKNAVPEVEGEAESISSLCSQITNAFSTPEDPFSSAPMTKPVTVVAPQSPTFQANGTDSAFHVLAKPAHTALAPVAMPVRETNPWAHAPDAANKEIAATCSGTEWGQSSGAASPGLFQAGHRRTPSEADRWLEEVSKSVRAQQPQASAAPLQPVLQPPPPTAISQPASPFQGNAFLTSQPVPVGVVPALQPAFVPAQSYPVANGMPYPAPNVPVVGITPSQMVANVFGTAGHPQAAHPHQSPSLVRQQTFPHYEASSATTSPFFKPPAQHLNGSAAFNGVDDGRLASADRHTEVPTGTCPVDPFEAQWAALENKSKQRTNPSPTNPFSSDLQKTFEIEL
UniProt Q9NR12: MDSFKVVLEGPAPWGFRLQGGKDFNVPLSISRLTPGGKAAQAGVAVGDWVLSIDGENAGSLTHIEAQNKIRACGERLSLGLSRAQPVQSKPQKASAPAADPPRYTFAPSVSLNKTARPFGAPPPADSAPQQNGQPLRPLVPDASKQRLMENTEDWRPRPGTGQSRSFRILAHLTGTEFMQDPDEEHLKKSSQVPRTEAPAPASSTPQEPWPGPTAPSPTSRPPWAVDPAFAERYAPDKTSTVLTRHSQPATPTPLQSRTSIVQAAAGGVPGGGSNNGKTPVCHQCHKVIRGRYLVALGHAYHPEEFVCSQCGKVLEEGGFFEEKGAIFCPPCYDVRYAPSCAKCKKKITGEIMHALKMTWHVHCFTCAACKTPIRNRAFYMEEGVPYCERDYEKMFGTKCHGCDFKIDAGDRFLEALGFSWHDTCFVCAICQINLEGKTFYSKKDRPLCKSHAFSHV
UniProt Q9Y3P9: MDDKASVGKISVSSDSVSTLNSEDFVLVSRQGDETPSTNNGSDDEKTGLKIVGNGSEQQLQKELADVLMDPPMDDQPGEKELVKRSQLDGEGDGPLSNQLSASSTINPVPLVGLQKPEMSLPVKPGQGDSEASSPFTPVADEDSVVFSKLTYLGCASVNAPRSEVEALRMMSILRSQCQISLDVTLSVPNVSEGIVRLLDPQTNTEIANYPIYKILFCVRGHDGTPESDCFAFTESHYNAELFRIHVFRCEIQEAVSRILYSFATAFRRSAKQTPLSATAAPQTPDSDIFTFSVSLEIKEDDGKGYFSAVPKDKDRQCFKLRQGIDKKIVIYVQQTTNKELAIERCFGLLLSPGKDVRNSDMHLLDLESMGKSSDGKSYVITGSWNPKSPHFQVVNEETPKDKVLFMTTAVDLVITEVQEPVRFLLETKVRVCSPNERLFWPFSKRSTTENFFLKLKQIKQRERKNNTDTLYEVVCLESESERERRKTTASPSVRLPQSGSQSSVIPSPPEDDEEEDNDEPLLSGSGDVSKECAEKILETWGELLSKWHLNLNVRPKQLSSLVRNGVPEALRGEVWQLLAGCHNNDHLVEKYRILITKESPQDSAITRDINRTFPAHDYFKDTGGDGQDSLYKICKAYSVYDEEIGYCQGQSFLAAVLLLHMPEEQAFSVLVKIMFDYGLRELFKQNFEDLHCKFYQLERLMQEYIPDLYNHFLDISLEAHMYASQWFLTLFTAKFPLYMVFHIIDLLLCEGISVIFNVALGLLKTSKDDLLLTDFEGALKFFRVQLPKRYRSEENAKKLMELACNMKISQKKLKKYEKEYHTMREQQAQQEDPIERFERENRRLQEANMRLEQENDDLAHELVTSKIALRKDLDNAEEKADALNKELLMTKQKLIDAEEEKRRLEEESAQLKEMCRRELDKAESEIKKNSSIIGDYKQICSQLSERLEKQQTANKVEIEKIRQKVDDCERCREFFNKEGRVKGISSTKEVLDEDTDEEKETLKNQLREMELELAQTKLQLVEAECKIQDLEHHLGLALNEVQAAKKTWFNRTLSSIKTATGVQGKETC

Row | binding [1] | binding [2] | binding [3] | binding [4] | binding [5] | binding [6] | Substance
1 | no binding | no binding | no binding | no binding | binds | – | NUMB (from UniProt P49757 1-651)
2 | binds | binds | binds | binds | binds | binds | PDLIM7 (from UniProt Q9NR12 1-457)
3 | – | no binding | no binding | no binding | binds | – | RABGAP1 (from UniProt Q9Y3P9 1-1069)

From publication PMC12489035
